Laboratory results taken from patent publication US12569503B2, “Methods and compositions for substituted axially-chiral cannabinol analogs” (University of Florida Research Foundation, Inc., priority 2019, dated 2026).

Tests used:
[1] = system: mice with chronic constriction injury (CCI) of the sciatic nerve; test: Reversal of CCI-induced thermal hyperalgesia; assay type: in vivo; conditions: Table 4, reverse thermal hyperalgesia
[2] = system: C57bl/6j mice with chronic constriction injury of the sciatic nerve (CCI); test: Reversal of CCI-induced mechanical allodynia (von Frey assay)
[3] = Reduction of body temperature (hypothermia); conditions: C57bl/6j, mouse, in vivo, Body Temp. ED50 ((95% CL) mg/kg), Table 1; decreasing body temperature, separate cohort of C57bl/6j mice

For 10-methyl-CBN [ax-CBN], the “Thermal Hyperalgesia ED50 ((95% CL)” value [1] was 126.01 mg/kg and the “Allodynia ED50 ((95% CL)” value ([2]; Table 4, reverse allodynia, CCI mice) was 153.01 mg/kg.

CCCCCc1cc(O)c2c(c1)OC(C)(C)[C@@H]1CCC(C)=C[C@@H]21 [THC, (−)-trans-Δ^9-tetrahydrocannabinol] showed an ED50 ([1]; Mus musculus, read-out: Thermal Hyperalgesia ED50 ((95% CL)) of 15.9 mg/kg, an ED50 ([2]; Mus musculus, read-out: Allodynia ED50 ((95% CL) mg/kg)) of 30.3 mg/kg and an ED50 [3] of 21.2 mg/kg.
